ChEMBL document CHEMBL4888484, “Replenishing the malaria drug discovery pipeline: Screening and hit evaluation of the MMV Hit Generation Library 1 (HGL1) against asexual blood stage Plasmodium falciparum ,using a nano luciferase reporter read-out” (2022)
About 540 (0.36%) of roughly 150,000 compounds showed an effect of 50% or more. This is one part of the list.

These compounds were tested on Plasmodium falciparum (assay: Primary screen in NF54 nanoGlo assay, in single point, at 2uM, 72h; a lower Z score goes with more inhibition). Details: timepoint 72 hour.
Format: functional, Erythrocyte

SMILES	% Inhibition [%]	Z score
Cc1ccc(OC2CCN(C(=O)c3ccccc3)CC2)nn1	-17	3.32
CCN(C1CCN(C)CC1)C1CN(C(=O)C2CCCCC2)C1	-10	1.33
COc1ccccc1Cn1c(=O)c2sccc2n(CC(=O)Nc2ccc(C)c(Cl)c2)c1=O	25	-3.66
O=C(c1cnccn1)N1CCOc2ccc(CN3CCCCCC3)cc2C1	-11	1.19
CN(C)c1cccc(C(=O)N[C@H]2CCS(=O)(=O)C(C)(C)C2)c1	-19	3.57
Cc1ccc2[nH]c(C3CN(S(=O)(=O)c4cccnc4)C3)nc2c1	-18	3.51
O=C(CN1CCOC1=O)NC1CCC2OCCOC2C1 (configuration not stated)	-5	1.02
COc1nccc(C(=O)N(Cc2cccs2)C(C)C)n1	-9	1.2
Cc1cnc([C@H]2CCN(C(=O)NCC(C)C)C2)n1C(C)C	2	-0.3
COc1ccc([C@@]2(C)NC(=O)N(CC(=O)Nc3ccc4c(c3)CCC4)C2=O)cc1OC	2	-0.25
C#CCN(Cc1ccco1)C(=O)[C@H]1CCOC1	-9	1.41
COCCc1ncc(-c2cc(C(=O)N3Cc4ccccc4C3)c3ccccc3n2)cn1	-12	1.63
CC1CCN(C(=O)C2CCCN2C(=O)OCC(F)(F)F)CC1C (configuration not stated)	-13	2.39
CCNC(=O)N1CCC(Cc2ccc(C(=O)N(C)Cc3cn(CC)nc3C)cc2)CC1	-4	0.54
C#CCNC(=O)C1C(=O)C(C)N(Cc2ccccc2)C1=O (configuration not stated)	-12	1.51
Cc1cn(C)c(CC(=O)NCc2ccc(CN3CCCCCC3)o2)c1C(=O)O	-14	1.81
CC(C)c1ccc(NC(=O)C2CCN(S(=O)(=O)c3ccc4c(c3)CCCN4C(=O)C3CCC3)CC2)cc1	-13	2.33
CNS(=O)(=O)c1ccc(NC(=O)NCC2(c3ccc(F)cc3F)CC2)nc1	-4	0.56
CC(C)(C)CC(NC(=O)N1CCCC(CO)C1)C(F)(F)F (configuration not stated)	0	-0.07
Cc1ccc(-n2cc(-c3ccccc3)nc2NC(=O)CN(CCN2CCOCC2)C(=O)c2ccco2)cc1F	0	-0.03
Cc1ccccc1Oc1cc(NC(=O)c2ccc(F)cc2)cc(NC(=O)c2ccc(F)cc2)c1	-5	0.73

SMILES	% Inhibition [%]	Z score
NC(=O)C1=C(NCCc2ccccc2)c2ccccc2S1(=O)=O	-9	0.9
Cc1cnc(-c2cccc(C(=O)NCCN3CCNC3=O)c2)nc1N(C)C	-18	2.72
COc1ccccc1Oc1nc(N2CCC(C)CC2)nc2c1CN(C(=O)Nc1ccccc1)CC2	-17	2.35
CC1(C)C[C@H](NCc2cc(C(N)=O)c3n2CCCC3)c2ccccc21	5	-0.67
COCCCN(CC(=O)N(CCc1c[nH]c2ccccc12)Cc1ccc(Cl)cc1)C(=O)c1cccc(Br)c1	-11	1.98
CCOC(=O)CNC(=O)N1CCCn2nc(-c3ccc(C)c(C)c3)cc2C1	-12	1.3
CCCN1C[C@@H](C(=O)N2CCn3cncc3C2)CCC1=O	0	-0.01
Cc1nc(CNC(=O)N(C)C[C@H](C)c2nccs2)c(C)s1	-2	0.32
C[C@H](CO)N(C)S(=O)(=O)c1c(O)cccc1OC(F)(F)F	-6	0.63
O=C(Nc1ccc(F)c(Cl)c1)[C@H]1Nc2cc(C(F)(F)F)ccc2S(=O)(=O)N1	-9	1.65
CCCCc1nc(CN2CCC[C@H](C(=O)c3cccc(OC(C)C)c3)C2)c[nH]1	-3	0.36
CC(C)N1CCC(N2CCN(Cc3nc4c(s3)CCCC4)C[C@@H]2CCO)CC1	-5	0.55
CC(C)(C)n1nccc1NC(=O)Nc1ccn(Cc2ccncc2)n1	-6	1.19
Cn1cc(S(=O)(=O)N2C3CCC2CC(Oc2cccnc2)C3)cn1 (configuration not stated)	-8	1.21
O=C(NC1CC[C@H]2CN(Cc3ccccc3)C[C@H]2C1)c1cccnn1 (some centres not stated)	-8	1.01
CC1CC1C(=O)Nc1nc2ccccc2n1-c1ccn(C)n1 (configuration not stated)	-11	1.42
O=C(CN(Cc1ccccc1)C1CC1)Nc1ccc(N2CCOCC2)cc1	8	-1.13
Cc1nc(CNC(=O)Nc2nc3c(s2)CCC3(C)C)no1	-6	0.82
CC1(C)CCC[C@@H]1NC(=O)c1cc(Cl)c2c(c1)OCCCO2	-6	0.95
O=C(c1ccccc1)N1CCCCC[C@H]1c1nc(C2CC2)no1	-4	0.74
Cc1ccc(NC(=O)c2c(C)sc3ncnc(N4CCCCCC4)c23)c(C)c1	-9	0.99

SMILES	% Inhibition [%]	Z score
COc1ccc(-c2nc3n(n2)C2(CCCCC2)[C@@H]2CCCC[C@@H]2N3C(=O)c2ccc(F)cc2)cc1	-27	2.36
CCOC(=O)c1cnc2c(F)c(F)ccc2c1OCc1ncnn1C	-10	1.83
CCn1c(CN2CCC[C@H]2c2cnn(C)c2)nc2cc(F)ccc21	-1	0.1
Cc1cc(CCNC(=O)N2CC[C@H](CN3CCCC3)C2)cc(C)c1O	-1	0.11
CCN=C(NCCc1nc(C(C)C)no1)N1CCN(C2CC2)C(=O)C1	-13	1.13
COc1ccccc1-c1ncc(CN(C)Cc2ccncc2C)cn1	-18	2.66
COCCN1CC2(CCN(C(=O)c3ccccc3Cl)CC2)[C@H]1c1ccncc1	-3	0.57
Cc1n[nH]c(=O)c2c1cnn2-c1ccc(F)cc1	20	-2.53
CC(C)Oc1cc(NC(=O)NCc2noc3c2COCC3)ccn1	2	-0.35
CC(C)[C@H](NS(=O)(=O)c1ccc(-c2cc(C(F)(F)F)[nH]n2)o1)c1nccn1C	-10	1.38
Cc1nnc(CC2CCN(C(=O)c3ccc4ccccc4n3)CC2)[nH]1	-15	2.2
CC(C)n1cc(NC(=O)NCc2cnn3cccnc23)nn1	-10	1.55
O=C(Nc1ccc(N2CCCCC2)cn1)c1cnccn1	-7	1.11
Cc1ccc([C@@H](C)CCN2CCC3(CCC(=O)N(CCc4c[nH]cn4)C3)CC2)o1	-16	2.11
Nc1c(F)cc(Cl)cc1C(=O)NCc1ccn2ccnc2c1	8	-0.75
CC1CCCN(C(=O)C(Cc2ccccc2)NC(=O)c2ccccc2)C1 (configuration not stated)	0	0.03
Cc1ccc(CN(C(=O)N[C@@H](C)c2ncnn2C)C2CCCC2)s1	-20	1.73
O[C@H](Cn1nnc2cc(Cl)c(Cl)cc21)CC(F)(F)F	-8	1.61
O=C1CCCN1CC[C@H]1CCCCN1S(=O)(=O)Cc1ccccc1	-12	1.5
COc1ccccc1CNC(=O)Cn1nc2ccc(-c3ccc(C)c(C)c3)nn2c1=O	-13	1.62
Cc1cc(CN2CCN(CC(=O)Nc3c(C#N)c(C)c(C)n3C[C@H]3CCCO3)CC2)no1	-39	4.59

SMILES	% Inhibition [%]	Z score
COc1ccc(CN2CC[C@H](NC(=O)c3cccnc3)[C@@H](O)C2)cc1Cl	-4	0.85
Nc1nccnc1C(=O)Nc1ccc2c(c1)CCC2	-7	1.43
CNC(=O)c1noc(CNC(=O)[C@@H]2CCCN2C(=O)C2CCCCC2)n1	-12	1.81
COc1ccc2[nH]c(CN3CCCC[C@H](N(C)C)C3)c(C)c2c1	-11	2.03
CCOC(=O)N1CCN(C(=O)c2ccc(NS(=O)(=O)c3ccc(C)cc3)cc2)CC1	-5	0.82
CC(C)C[C@H](NC(=O)c1cccn1C1CC1)c1cccnc1	-8	0.94
CN(CCOc1ccccc1)C1CCCCC1S(C)(=O)=O (configuration not stated)	-6	0.72
O=C(C1CCN(S(=O)(=O)c2ccc(Cl)cc2)CC1)N1CC[C@@]2(O)CCCC[C@H]2C1	-13	1.69
CO[C@@]12CC[C@@H](OCC3CC3)C[C@@H]1N(c1nnc(C)s1)CC2	0	0.06
CN1CCN(c2ccc(N3CCC(N4CCCCCC4)CC3)cc2)C1=O	-8	1.14
Cc1cccc(C2c3cc(OC(C)C(=O)NC4CC4)ccc3CCN2C(=O)c2ccccc2)c1 (configuration not stated)	28	-3.17
CC(C)COc1cc(NC(=O)[C@@H]2CCO[C@H]2C2CC2)ncn1	-1	0.23
O=C1CCC(CC(=O)N2CCCC3CCCC32)CC1 (configuration not stated)	-1	0.18
O=S(=O)(c1cn[nH]c1)N1C[C@@H]2CC[C@@H](C2)C1	-7	0.95
COc1ccc(-c2nn(-c3ccc(C(F)(F)F)cc3)c(N)c2NC(=O)NCc2ccccn2)cc1	-4	0.58
O=C(c1cccc(-n2ccnc2)c1)N(C[C@H]1CCCO1)C1CCCC1	-10	0.98
Cn1c(C(F)(F)F)nc2cncc(C(=O)N3C[C@H]4CCC[C@H]4C3)c21	-5	0.62
CCNC(=O)N1CC[C@H](NC(=O)Nc2cccc(C)c2Cl)C1	5	-0.71
